The record followed here is PubChem BioAssay AID485344 (National Center for Advancing Translational Sciences (NCATS), 2010).

In all, about 340,000 compounds went through this assay and about 6,900 (2%) were called active. No stated cut-off is given here; in the data, active means inhibition above about 30%; inactive means below that, where a call was filed. Only a part is listed here, and it is no random draw. Where no call is shown, the source filed none.

UniProt P14416, sequence (P14416 whole entry, looked up): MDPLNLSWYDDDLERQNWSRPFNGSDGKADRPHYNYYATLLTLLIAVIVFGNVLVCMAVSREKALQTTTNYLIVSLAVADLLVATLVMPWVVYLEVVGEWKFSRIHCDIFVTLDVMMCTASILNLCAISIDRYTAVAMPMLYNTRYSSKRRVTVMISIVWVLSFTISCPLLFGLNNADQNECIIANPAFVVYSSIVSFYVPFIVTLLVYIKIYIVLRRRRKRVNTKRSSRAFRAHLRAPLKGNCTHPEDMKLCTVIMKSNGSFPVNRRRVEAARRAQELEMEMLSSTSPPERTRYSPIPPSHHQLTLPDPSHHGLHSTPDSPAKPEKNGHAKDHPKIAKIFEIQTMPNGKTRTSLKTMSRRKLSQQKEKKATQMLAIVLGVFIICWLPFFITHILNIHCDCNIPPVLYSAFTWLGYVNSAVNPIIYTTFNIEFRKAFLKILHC

The target in the assay is D(2) dopamine receptor (Homo sapiens) (UniProt P14416). Nature of the assay: HTS Assay for Allosteric Antagonists of the Human D2 Dopamine Receptor: Primary Screen for Antagonists. Further: 0% is about no effect. The following applies: HEK293 TREx D2 cells, calcium flux, dopamine EC80; at 10 µM; stronger effect = higher value. The procedure, abridged:
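Antagonism is scored as inhibition of an EC80 dopamine-evoked calcium signal in a force-coupled, tetracycline-inducible HEK293 T-REx D2 line, with compound present 180 s before agonist.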
On the technique in general: Calcium flux is commonly read through the fluorescence of an indicator in the cells.
Regarding `O=C(Nc1cccc(C(F)(F)F)c1)c1ccc(Cn2cc(Br)cn2)o1`, the inhibition is active: 35.5%.

With `Cc1nnc(SCC(=O)NCc2ccccc2F)c2nn(-c3ccc(Cl)cc3)c(C)c12`, the inhibition was -16.2%.

Regarding `COCCc1nn2c(=O)cc(COC(=O)c3ccc(C(C)(C)C)cc3)nc2s1`, the inhibition is -5.84%.

Consider `Cc1ccc(Cn2ccc(NC(=O)c3cc(-c4ccc(Cl)c(Cl)c4)on3)n2)cc1`, for which the inhibition was 6.14%.

Take `COc1ccc(CNc2ncnc3c2c(-c2ccccc2)cn3-c2ccccc2)cc1`: the inhibition stood at 19.4%.

As to `CCN(CC)S(=O)(=O)c1ccc(C(=O)N=c2sc3cccc(OC)c3n2C)cc1`, the inhibition stood at 12%.

On to `Cc1ccc(S(=O)(=O)c2nc(-c3ccc(Cl)cc3)oc2N2CCCCCC2)cc1`, for which the inhibition stood at 9.52%.

With `Cc1c(-c2cccc(NC(=O)C(C)(C)C)c2)nc2ncccn12`, the inhibition is -7.36%.

Regarding `CN1CC(=O)N(CC(=O)Nc2ccc(Cl)c(C(F)(F)F)c2)c2ccccc2C1=O`, the inhibition came to 7.07%.

Turning to `O=C(c1ccc2c(Cl)c3c(nc2c1)CCCC3)N1CCN(c2cccc(Cl)c2)CC1`, the inhibition worked out at 16.2%.

`CCc1ccc(-c2ccc(C(=O)Oc3ccc(Br)cc3)cc2)nc1`: the inhibition was 17.9%.

On to `COc1ccc(NC(=O)C2=C(C)Nc3nc(SCc4ccccc4)nn3C2c2cc(OC)ccc2OC)cc1` (stereo unspecified), for which the inhibition was -3.22%.

On to `Cc1c(C)n(C)c2ccc(C(=O)NCCCN3CCCCC3)cc12`, for which the inhibition stood at 8.32%.

With `Cc1ccc(-c2c(C(=O)NCCc3ccc(Cl)cc3)oc(=O)c3ccccc23)cc1`, the inhibition was -10.5%.

For the compound `Cc1cccc(N2C(=O)CCSC23C(=O)N(Cc2ccc(F)cc2)c2ccccc23)c1` (stereo unspecified), the inhibition is -8.38%.

`CN(C)c1ccc(NC(=O)Cn2c(SCc3ccccc3F)nc3cccnc32)cc1`: the inhibition was -0.0927%.

In the case of `FC(F)Oc1ccc(NC(=S)NC2CCCCCCC2)cc1`, the inhibition was active: 33.3%.

With `Cc1ccc(C)c(S(=O)(=O)c2nnn3c2nc(NCc2ccc4c(c2)OCO4)c2sccc23)c1`, the inhibition was -10.7%.

As for `COc1ccc(-c2nnc(SCC(=O)Nc3ccc(F)cc3)s2)cc1`, the inhibition was -28.3%.

In the case of `CN(C)c1ccc(C(CNS(=O)(=O)c2ccc(Br)cc2)N2CCOCC2)cc1` (stereo unspecified), the inhibition is 2.98%.

As for `O=c1c2sc3ccccc3c2n(Cc2ccccc2F)c(=O)n1CCc1ccccc1`, the inhibition is -9.69%.

In the case of `Cc1cc(N2CCN(C(c3ccccc3)c3ccc(Cl)cc3)CC2)n2ncnc2n1` (stereo unspecified), the inhibition was active: 30.7%.

In the case of `CCOC(=O)c1ccccc1NC(=O)Cn1c(=O)n(Cc2ccccc2)c(=O)c2c(C)c(C)sc21`, the inhibition is 2.64%.

Take `CCC(=O)Oc1ccc(-c2nc3ccccc3c(=O)o2)cc1`: the inhibition was -4.68%.

For `CCN(c1ccc(Cl)cc1)S(=O)(=O)c1nnc(NC(=O)C(C)C)s1`, the inhibition stood at 6.99%.

For the compound `Cc1ccc(-n2ncc(C(=O)N3CCN(Cc4ccccc4)CC3)c2C2CCN(C(=O)OC(C)(C)C)CC2)c(C)c1`, the inhibition is 2.22%.

Turning to `CC(C)(C)OC(=O)N1CCC(c2c(C(=O)NCc3ccco3)cnn2-c2ccc(F)cc2)CC1`, the inhibition is -9.5%.

`O=C(Nc1ccc2c(c1)N(C1CCCC1)C(=O)c1ccccc1S2)c1ccc(F)cc1`: the inhibition was -0.334%.

On to `CCN(CC)CCCNC(=O)c1ccc2nc(CCc3ccccc3)oc2c1`, for which the inhibition was found to be 21.3%.

As to `O=S(=O)(c1cccc(Cl)c1)c1nnn2c1nc(NC1CCCCCC1)c1sccc12`, the inhibition was -0.657%.

Regarding `C=CCNCCOc1c(C)cc(C)cc1Cl`, the inhibition was active: 31.6%.

`Cc1ccc(S(=O)(=O)c2c(C)nn(-c3ccccc3)c2OC(=O)c2ccccc2F)cc1`: the inhibition amounted to 12%.

In the case of `Cc1ccc(C)c(OCC(O)CN2CCC(Cc3ccccc3)CC2)c1` (stereo unspecified), the inhibition is active: 46.7%.

For `CCN(CC)c1ccc(NC(=O)C2COc3ccc(OC)cc3C2)c(C)c1` (stereo unspecified), the inhibition was found to be 2.65%.

Consider `CCSc1ncc(Cl)c(C(=O)N2CCN(c3ccc(OC)cc3)CC2)n1`, for which the inhibition is 11.9%.

Take `C=Cc1ccc(Cn2c(=O)n(-c3cccc(C)c3)c(=O)c3c2c2cc(C)ccc2n3C)cc1`: the inhibition worked out at 2.52%.

`CCOc1ccc(OCC(=O)Nc2c(C(=O)Nc3ccc(C)cc3)oc3ccccc23)cc1`: the inhibition turned out to be 7.02%.

As for `CCOc1ccc(CNC(=O)c2cnc3sc(N4CCC(C)CC4)nn3c2=O)cc1OC`, the inhibition is -0.241%.

For the compound `Cc1cc(C)c(C#N)c(N2CCN(Cc3ccc4c(c3)OCO4)CC2)n1`, the inhibition is active: 97.8%.

Turning to `COc1cccc(-n2c(=O)c3sc4ccccc4c3n(CC(=O)Nc3cccc(Cl)c3)c2=O)c1`, the inhibition stood at 5.51%.

As for `Fc1ccc(CNc2nc3ccc(Cl)cc3n3nnnc23)cc1`, the inhibition turned out to be 4.27%.

As for `O=S(=O)(Nc1cccc(-c2ccc(N3CCCCC3)nn2)c1)c1ccc(Cl)s1`, the inhibition is -3.78%.

`CC1(C(=O)O)CCC(C(=O)Nc2ccc(OC(F)(F)Cl)cc2)C1(C)C` (stereo unspecified): the inhibition was active: 42.8%.

As for `CCOc1ccc(CCNC(=O)c2ccc3nc(CC)c(CC)nc3c2)cc1`, the inhibition was -3.65%.

As to `COc1ccccc1-c1cc(C(=O)Nc2cc(Cl)ccc2O)no1`, the inhibition is -15.8%.

On to `CC1CCN(C(=O)Cn2ncc3c4ccccc4n(Cc4ccc(Cl)cc4)c3c2=O)CC1`, for which the inhibition worked out at 7.18%.

For the compound `COc1ccc(-c2cc(C(=O)NCc3ccccc3)c3c(-c4ccccc4)[nH]nc3n2)cc1`, the inhibition was found to be 7.63%.

Turning to `COc1ccccc1N1CCN(C(=O)Cc2c(C(=O)O)c(C)cn2C)CC1`, the inhibition is -15.3%.

Take `c1ccc(-n2ncc3c(NC4CCCCCC4)ncnc32)cc1`: the inhibition is active: 46%.

Turning to `CCc1ccccc1NC(=O)C1CCCN(c2nnc(-n3c(C)ccc3C)s2)C1` (stereo unspecified), the inhibition is -12.7%.

Consider `CC(=O)c1ccc(NC(=O)c2cc(-c3ccc(Cl)c(Cl)c3)on2)cc1`, for which the inhibition was -26.7%.

`CCCCSCCCNC(=O)C1CCC(CNS(=O)(=O)c2ccccc2)CC1` (stereo unspecified): the inhibition is 13.1%.

As to `CCn1c(CN2CCOCC2)nc2cc(NC(=O)c3cc(OC)c(OC)c(OC)c3)ccc21`, the inhibition turned out to be 13.3%.

Turning to `CC(=O)c1ccc(NC(=O)C2CCC(CNS(=O)(=O)c3ccc4c(c3)CCCC(=O)N4)CC2)cc1` (stereo unspecified), the inhibition is 1.59%.

As for `CSc1nn(Cc2ccc(Br)cc2)c(N(C(C)=O)C(C)=O)c1S(=O)(=O)c1ccccc1`, the inhibition worked out at 1.59%.

For the compound `CCc1cccc(NCc2ccccc2-c2nnc(-c3ccccc3Cl)o2)c1`, the inhibition is -4.35%.

Take `Cc1ccc(-n2ncc(C#N)c2/N=C/N2CCN(C)CC2)cc1`: the inhibition was active: 37.3%.

As for `COc1ccc(-n2c(SCc3ccccc3F)nc3c([nH]c4ccccc43)c2=O)cc1`, the inhibition was 10.2%.

For `CCOc1ccc(NC(=O)c2ccc(F)c(S(=O)(=O)NCc3ccc4c(c3)OCO4)c2)cc1`, the inhibition was found to be 5.99%.

On to `Cc1oc2ncn(CC(C)C)c(=O)c2c1C(=O)NCCCN(Cc1ccccc1)C(C)C`, for which the inhibition was 14%.

In the case of `CCOc1ccc(NC(=O)CSc2nnc(-c3ccc(C)cc3)c(-c3ccc(C)cc3)n2)cc1`, the inhibition was -3.58%.

For orientation: inhibition means the change of the read-out against control, counted positive when it falls.
